In the supplement of paper PMC10126150:
Values marked as one replicate rest on one cluster of the flow cell; about a third of the high ones do not repeat.

System: ATP
Test: switch fluorescence ratio, 500 uM ATP over buffer (Cy3 cluster intensity, sum of 5 cycles each) (fold (ratio)); higher = stronger signal-on switching upon ATP binding; sequences stand for … in TCGTCGGCAGCGTCAGATGTGTATAAGAGACAGTTTTTTTTTTTTTTTTTTTTTTTTT…TC
Conditions: aptamer strand: ATP DNA aptamer (quencher-CACCTGGGGGAGTATTGCGGAGGAAGG + anchor), 100 nM annealed; ATP concentration: 500 uM; one replicate
Summary of the method: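 Cy3-labelled switching-strand clusters on a modified Illumina MiSeq flow-cell were annealed to 100 nM quencher-labelled ATP aptamer, imaged in selection buffer, then imaged after 15 min with 500 uM ATP at 22 °C. Five buffer/ATP cycles ran, with NaOH stripping and re-annealing between them. The fluorescence ratio is summed target-cycle over summed buffer-cycle Cy3 intensity per cluster, averaged per switch-domain sequence. Clusters outside 100-1000 RFU were excluded.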
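Note: ATP exposure 15 min at 22 °C before imaging.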

Sequence | switch fluorescence ratio
CGACACGTAG | 1.03
CGACAGGCGC | 1.06
CGACAGTTAT | 1.06
CGACATACGT | 1.46
CGACATGAGA | 1.02
CGACATGTCG | 0.961
CGACCCCATT | 1.22
CGACCTCTCG | 1.04
CGACCTGGGG | 0.905
CGACCTGTTT | 0.997
CGACGATAGA | 1.15
CGACGCGAAG | 2.76
CGACGGAGCT | 1.87
CGACGTGCGT | 1.05
CGACTAAGGG | 0.952
CGACTAATTA | 0.955
CGACTATTCG | 1.04
CGACTCATGT | 1.01
CGACTCGGAG | 1.05
CGACTCTAA | 1.1
CGACTCTTTC | 0.997
CGACTGCGGA | 1.22
CGACTGGATT | 1.02
CGACTGGGTT | 1
CGACTGTACA | 1.51

Sequence | switch fluorescence ratio
CGACTTCAAT | 1.64
CGAGAACTCG | 0.94
CGAGAAGATA | 1
CGAGAAGATT | 1.01
CGAGAATTGG | 0.997
CGAGACACAT | 1.05
CGAGAGGCGT | 1.02
CGAGAGTGCA | 1.02
CGAGATAGGG | 1.01
CGAGATATAT | 0.982
CGAGATTGAA | 0.975
CGAGATTGTA | 0.969
CGAGCCAGGT | 1.43
CGAGCGCCCC | 1.11
CGAGCTGACA | 1.05
CGAGGAGTCG | 0.978
CGAGGGCATC | 1.07
CGAGGGTGGT | 1.02
CGAGGGTTGT | 0.961
CGAGGTGCTG | 1.03
CGAGTAAATT | 0.998
CGAGTAGTAC | 1.29
CGAGTATTGT | 1.03
CGAGTCATCT | 0.965
CGAGTCATGC | 1.05

Sequence | switch fluorescence ratio
CGAGTCCAGT | 1.13
CGAGTCGAGA | 0.976
CGAGTCTCGG | 1.06
CGAGTGAATT | 0.94
CGAGTGCCGT | 0.955
CGAGTGGAAC | 1.04
CGAGTGGTGC | 1.14
CGAGTGTCTC | 1.04
CGAGTTCACG | 1.02
CGATAACTAG | 1.01
CGATAATTTT | 0.962
CGATACACCT | 1.3
CGATACAGTT | 1.04
CGATAGTTCC | 1.03
CGATATAGGT | 1.01
CGATATCAGT | 0.96
CGATCAAATC | 1.16
CGATCAGGGG | 1.12
CGATCCGAGG | 0.983
CGATCGTTAC | 3.43
CGATCTCGCG | 1.02
CGATCTGTGG | 0.981
CGATGAGCGG | 0.973
CGATGATTGG | 1.01
CGATGCCCAC | 1.44

Sequence | switch fluorescence ratio
CGATGCTGAG | 0.976
CGATGGTGAC | 1.05
CGATGTGATT | 1.05
CGATTAAACA | 0.976
CGATTACCCG | 1.05
CGATTAGTAT | 0.98
CGATTATGCT | 0.96
CGATTCTAAT | 0.965
CGATTGATCT | 0.978
CGATTGGATA | 1.01
CGATTGGATC | 0.99
CGATTGTCCG | 1
CGATTTGGAT | 0.98
CGATTTTAGC | 0.99
CGCAACCAAA | 1.15
CGCACACC | 2.83
CGCACAGGGG | 3.79
CGCACGTGTA | 1.02
CGCACTTCAA | 1.09
CGCAGAAGAT | 1
CGCAGCTGGG | 1.1
CGCAGGCTTC | 1.07
CGCAGGTTGT | 1.1
CGCAGTATTG | 1.1
CGCAGTCGAG | 1.75

Sequence | switch fluorescence ratio
CGCAGTCTTC | 1.08
CGCAGTGGGC | 1.15
CGCAGTTAAT | 1.2
CGCATATGCC | 1.16
CGCATCACAG | 1.14
CGCATCGG | 1.1
CGCATGAGTC | 1.22
CGCATGGATG | 1.01
CGCATGTCAC | 2.82
CGCATTAAGT | 1.11
CGCATTATAT | 1.75
CGCCAACG | 1.02
CGCCAATCGC | 2.5
CGCCAATGAT | 1.07
CGCCACGAGA | 1.02
CGCCACGGGG | 1.04
CGCCAGAAAC | 1.11
CGCCAGGTAA | 1.21
CGCCATCGG | 1.03
CGCCCAGGTT | 3.83
CGCCCATAGT | 1.09
CGCCCCAACG | 1.06
CGCCCGC | 1.14
CGCCCGGCGG | 1.02
CGCCCGGGGC | 3.02

Sequence | switch fluorescence ratio
CGCCCGTAGC | 1.31
CGCCCTCAAA | 1.04
CGCCCTTCGT | 1.09
CGCCGAGCTC | 1.26
CGCCGCGCTT | 1.33
CGCCGGCCGG | 1.06
CGCCGGGCCT | 1.04
CGCCGTAACT | 1
CGCCGTGAA | 0.979
CGCCGTGAAT | 1.03
CGCCTAACT | 1.17
CGCCTACAG | 1.08
CGCCTATGTT | 0.94
CGCCTGCGGA | 1.03
CGCCTGCTTA | 1.01
CGCCTTGTGC | 1.05
CGCCTTTTCA | 1.02
CGCGAAAAGC | 1.52
CGCGACCCTG | 1.04
CGCGAGCCGC | 0.986
CGCGATCGTG | 1.04
CGCGATTGAT | 1.03
CGCGCACCGT | 1.06
CGCGCAGTC | 1.7
CGCGCCATTT | 1

Sequence | switch fluorescence ratio
CGCGCCTAG | 0.987
CGCGCGAGCA | 1.04
CGCGCGCCTT | 1.01
CGCGGATCAT | 1.07
CGCGGCATTT | 1.09
CGCGGCCAGC | 0.967
CGCGGCTGAC | 1.62
CGCGGGCCTA | 1
CGCGGGGCGT | 1
CGCGGGGTCA | 1.04
CGCGTAAGGT | 1.02
CGCGTATTGG | 1.06
CGCGTTTAA | 1.04
CGCTAAAGGC | 1.15
CGCTAAATTA | 1.03
CGCTACGGAA | 1.76
CGCTACGGTC | 1.05
CGCTAGAAGC | 1.01
CGCTAGACCC | 1.46
CGCTATCCCT | 1.28
CGCTATCTTT | 1.04
CGCTCAGGGG | 2.09
CGCTCCTGGT | 1.01
CGCTCGCAAA | 5.48
CGCTCGTAGG | 0.983

Sequence | switch fluorescence ratio
CGCTCTGCGG | 1.07
CGCTGAGCGG | 1.03
CGCTGATCAA | 1.01
CGCTGCATAT | 3.21
CGCTGCGGCG | 1.06
CGCTGCGTTG | 1
CGCTGCTGGG | 1.04
CGCTGCTTCA | 1.05
CGCTTGATGT | 0.976
CGCTTGTCGA | 1.06
CGCTTTAGAA | 1.01
CGCTTTGGAC | 1.99
CGGAAAAGGC | 1.01
CGGAAACGAA | 1.04
CGGAACATCT | 1.02
CGGAACTATT | 1.01
CGGAAGAATG | 1.01
CGGAATACAG | 1.62
CGGAATGTTC | 1.06
CGGACATGGG | 1
CGGACCAGGA | 1.06
CGGACCGGCA | 1.02
CGGACGCTCC | 3.41
CGGACGCTTA | 2.09
CGGACGGGT | 0.99
